# Source: the supplement of paper PMC8728848
# Some of the results follow.
# B1: SRA-1 (Homo sapiens), P21757 (protein)
# chain: MEQWDHFHNQQEDTDSCSESVKFDARSMTALLPPNPKNSPSLQEKLKSFKAALIALYLLVFAVLIPLIGIVAAQLLKWETKNCSVSSTNANDITQSLTGKGNDSEEEMRFQEVFMEHMSNMEKRIQHILDMEANLMDTEHFQNFSMTTDQRFNDILLQLSTLFSSVQGHGNAIDEISKSLISLNTTLLDLQLNIENLNGKIQENTFKQQEEISKLEERVYNVSAEIMAMKEEQVHLEQEIKGEVKVLNNITNDLRLKDWEHSQTLRNITLIQGPPGPPGEKGDRGPTGESGPRGFPGPIGPPGLKGDRGAIGFPGSRGLPGYAGRPGNSGPKGQKGEKGSGNTLTPFTKVRLVGGSGPHEGRVEILHSGQWGTICDDRWEVRVGQVVCRSLGYPGVQAVHKAAHFGQGTGPIWLNEVFCFGRESSIEECKIRQWGTRACSHSEDAGVTCTL
# Assays:
# Assay in all cases: glycan array binding signal (z-score within array); higher = stronger binding
# Details in all cases: glycan notation: IUPAC condensed, linker removed
# [1] = target: Gal(b1-4)GlcNAc(b1-3)Gal(b1-4)GlcNAc(b1-3)Gal(b1-4)GlcNAc(b1-3)Gal(b1-4)GlcNAc(b1-2)Man(a1-3)[Gal(b1-4)GlcNAc(b1-3)Gal(b1-4)GlcNAc(b1-3)Gal(b1-4)GlcNAc(b1-3)Gal(b1-4)GlcNAc(b1-2)Man(a1-6)]Man(b1-4)GlcNAc(b1-4)GlcNAc
# How it was run: (§1)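 Glycan array binding is given as a within-array Z-score, which can be read as non-binding when negative. The arrays, 3228 of them, came from the Consortium for Functional Glycomics database and were retained only where the protein sequence was available. Z-scores were averaged across arrays of the same protein sequence at different concentrations or buffers and across linkers.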
# [2] = target: Gal(b1-4)GlcNAc(b1-3)Gal(b1-4)GlcNAc(b1-3)Gal(b1-4)GlcNAc(b1-3)Gal(b1-4)GlcNAc(b1-2)Man(a1-3)[Gal(b1-4)GlcNAc(b1-3)Gal(b1-4)GlcNAc(b1-3)Gal(b1-4)GlcNAc(b1-3)Gal(b1-4)GlcNAc(b1-2)Man(a1-6)]Man(b1-4)GlcNAc(b1-4)[Fuc(a1-6)]GlcNAc
# How it was run: as §1
# [3] = target: Gal(b1-4)GlcNAc(b1-3)Gal(b1-4)GlcNAc(b1-3)Gal(b1-4)GlcNAc(b1-3)Gal(b1-4)GlcNAc(b1-2)[Gal(b1-4)GlcNAc(b1-3)Gal(b1-4)GlcNAc(b1-3)Gal(b1-4)GlcNAc(b1-3)Gal(b1-4)GlcNAc(b1-6)]Man(a1-6)[Gal(b1-4)GlcNAc(b1-3)Gal(b1-4)GlcNAc(b1-3)Gal(b1-4)GlcNAc(b1-3)Gal(b1-4)GlcNAc(b1-2)Man(a1-3)]Man(b1-4)GlcNAc(b1-4)[Fuc(a1-6)]GlcNAc
# How it was run: as §1
# [4] = target: Gal(b1-4)GlcNAc(b1-3)Gal(b1-4)GlcNAc(b1-3)Gal(b1-4)GlcNAc(b1-3)Gal(b1-4)GlcNAc(b1-3)Gal(b1-4)GlcNAc(b1-2)Man(a1-3)[Gal(b1-4)GlcNAc(b1-3)Gal(b1-4)GlcNAc(b1-3)Gal(b1-4)GlcNAc(b1-3)Gal(b1-4)GlcNAc(b1-3)Gal(b1-4)GlcNAc(b1-2)Man(a1-6)]Man(b1-4)GlcNAc(b1-4)GlcNAc
# How it was run: as §1
# [5] = target: Gal(b1-4)GlcNAc(b1-3)Gal(b1-4)GlcNAc(b1-3)Gal(b1-4)GlcNAc(b1-3)Gal(b1-4)GlcNAc(b1-3)Gal(b1-4)GlcNAc(b1-2)Man(a1-3)[Gal(b1-4)GlcNAc(b1-3)Gal(b1-4)GlcNAc(b1-3)Gal(b1-4)GlcNAc(b1-3)Gal(b1-4)GlcNAc(b1-3)Gal(b1-4)GlcNAc(b1-2)Man(a1-6)]Man(b1-4)GlcNAc(b1-4)[Fuc(a1-6)]GlcNAc
# How it was run: as §1
# [6] = target: Gal(b1-4)GlcNAc(b1-3)Gal(b1-4)GlcNAc(b1-3)Gal(b1-4)GlcNAc(b1-3)Gal(b1-4)GlcNAc(b1-3)Gal(b1-4)GlcNAc(b1-2)[Gal(b1-4)GlcNAc(b1-3)Gal(b1-4)GlcNAc(b1-3)Gal(b1-4)GlcNAc(b1-3)Gal(b1-4)GlcNAc(b1-3)Gal(b1-4)GlcNAc(b1-6)]Man(a1-6)[Gal(b1-4)GlcNAc(b1-3)Gal(b1-4)GlcNAc(b1-3)Gal(b1-4)GlcNAc(b1-3)Gal(b1-4)GlcNAc(b1-3)Gal(b1-4)GlcNAc(b1-2)Man(a1-3)]Man(b1-4)GlcNAc(b1-4)[Fuc(a1-6)]GlcNAc
# How it was run: as §1
# [7] = target: Gal(b1-4)GlcNAc(b1-3)Gal(b1-4)GlcNAc(b1-3)Gal(b1-4)GlcNAc(b1-3)Gal(b1-4)GlcNAc(b1-3)Gal(b1-4)GlcNAc(b1-3)Gal(b1-4)GlcNAc(b1-2)Man(a1-3)[Gal(b1-4)GlcNAc(b1-3)Gal(b1-4)GlcNAc(b1-3)Gal(b1-4)GlcNAc(b1-3)Gal(b1-4)GlcNAc(b1-3)Gal(b1-4)GlcNAc(b1-3)Gal(b1-4)GlcNAc(b1-2)Man(a1-6)]Man(b1-4)GlcNAc(b1-4)GlcNAc
# How it was run: as §1
# [8] = target: Gal(b1-4)GlcNAc(b1-3)Gal(b1-4)GlcNAc(b1-3)GalNAc
# How it was run: as §1
# [9] = target: Gal(b1-4)GlcNAc(b1-3)Gal(b1-4)GlcNAc(b1-3)[Gal(b1-4)GlcNAc(b1-3)Gal(b1-4)GlcNAc(b1-6)]GalNAc
# How it was run: as §1
# [10] = target: Gal(b1-4)GlcNAc(b1-3)Gal(b1-4)GlcNAc(b1-6)[Gal(b1-3)]GalNAc
# How it was run: as §1
# [11] = target: Gal(b1-4)GlcNAc(b1-3)Gal(b1-4)[Fuc(a1-3)]GlcNAc(b1-3)Gal(b1-4)[Fuc(a1-3)]GlcNAc
# How it was run: as §1
# [12] = target: Gal(b1-4)GlcNAc(b1-3)GalNAc
# How it was run: as §1
# [13] = target: Gal(b1-4)GlcNAc(b1-3)[Fuc(a1-3)GlcNAc(b1-6)]Gal(b1-4)Glc
# How it was run: as §1
# [14] = target: Gal(b1-4)GlcNAc(b1-3)[Gal(b1-4)GlcNAc(b1-6)]Gal(b1-4)GlcNAc
# How it was run: as §1
# [15] = target: Gal(b1-4)GlcNAc(b1-3)[GlcNAc(b1-6)]Gal(b1-4)GlcNAc
# How it was run: as §1
# [16] = target: Gal(b1-4)GlcNAc(b1-6)Gal(b1-4)GlcNAc
# How it was run: as §1
# [17] = target: Gal(b1-4)GlcNAc(b1-6)GalNAc
# How it was run: as §1
# [18] = target: Gal(b1-4)GlcNAc(b1-6)[Gal(b1-3)]GalNAc
# How it was run: as §1
# [19] = target: Gal(b1-4)GlcNAc(b1-6)[Gal(b1-4)GlcNAc(b1-3)]GalNAc
# How it was run: as §1
# Gal(b1-4)GlcNAc6P = target: Gal(b1-4)GlcNAc6P
# How it was run: as §1
# Gal(b1-6)Gal = target: Gal(b1-6)Gal
# How it was run: as §1
# Gal3S(b1-3)GalNAc = target: Gal3S(b1-3)GalNAc
# How it was run: as §1
# Gal3S(b1-3)GlcNAc = target: Gal3S(b1-3)GlcNAc
# How it was run: as §1
# [20] = target: Gal3S(b1-3)[Fuc(a1-4)]GlcNAc
# How it was run: as §1
# Gal3S(b1-4)Glc = target: Gal3S(b1-4)Glc
# How it was run: as §1
# Gal3S(b1-4)Glc6S = target: Gal3S(b1-4)Glc6S
# How it was run: as §1
# Gal3S(b1-4)GlcNAc = target: Gal3S(b1-4)GlcNAc
# How it was run: as §1
# [21] = target: Gal3S(b1-4)[Fuc(a1-3)]Glc6S
# How it was run: as §1
# [22] = target: Gal3S(b1-4)[Fuc(a1-3)]GlcNAc
# How it was run: as §1
# [23] = target: Gal3S(b1-4)[Fuc(a1-3)]GlcNAc6S
# How it was run: as §1
# Gal3S4S(b1-4)GlcNAc = target: Gal3S4S(b1-4)GlcNAc
# How it was run: as §1
# Gal3S6S(b1-4)GlcNAc = target: Gal3S6S(b1-4)GlcNAc
# How it was run: as §1
# Gal3S6S(b1-4)GlcNAc6S = target: Gal3S6S(b1-4)GlcNAc6S
# How it was run: as §1
# Gal4S(b1-4)GlcNAc = target: Gal4S(b1-4)GlcNAc
# How it was run: as §1
# Gal4S6S(b1-4)GlcNAc = target: Gal4S6S(b1-4)GlcNAc
# How it was run: as §1
# Gal6P(b1-4)GlcNAc = target: Gal6P(b1-4)GlcNAc
# How it was run: as §1
# Gal6S(b1-3)GlcNAc = target: Gal6S(b1-3)GlcNAc
# How it was run: as §1
# Gal6S(b1-3)GlcNAc6S = target: Gal6S(b1-3)GlcNAc6S
# How it was run: as §1
binder,measurement,setting,value
B1,glycan array binding signal (z-score),[1],-0.051
same,glycan array binding signal (z-score),[2],0.096
same,glycan array binding signal (z-score),[3],0.488
same,glycan array binding signal (z-score),[4],0.434
same,glycan array binding signal (z-score),[5],-0.337
same,glycan array binding signal (z-score),[6],0.801
same,glycan array binding signal (z-score),[7],0.603
same,glycan array binding signal (z-score),[8],-0.228
same,glycan array binding signal (z-score),[9],0.16
same,glycan array binding signal (z-score),[10],-0.129
same,glycan array binding signal (z-score),[11],-0.72
same,glycan array binding signal (z-score),[12],0.007
same,glycan array binding signal (z-score),[13],-0.099
same,glycan array binding signal (z-score),[14],0.025
same,glycan array binding signal (z-score),[15],-0.233
same,glycan array binding signal (z-score),[16],-0.121
same,glycan array binding signal (z-score),[17],0.967
same,glycan array binding signal (z-score),[18],0.284
same,glycan array binding signal (z-score),[19],-0.137
same,glycan array binding signal (z-score),Gal(b1-4)GlcNAc6P,-0.237
same,glycan array binding signal (z-score),Gal(b1-6)Gal,-0.038
same,glycan array binding signal (z-score),Gal3S(b1-3)GalNAc,0.526
same,glycan array binding signal (z-score),Gal3S(b1-3)GlcNAc,0.811
same,glycan array binding signal (z-score),[20],0.174
same,glycan array binding signal (z-score),Gal3S(b1-4)Glc,0.106
same,glycan array binding signal (z-score),Gal3S(b1-4)Glc6S,0.186
same,glycan array binding signal (z-score),Gal3S(b1-4)GlcNAc,0.181
same,glycan array binding signal (z-score),[21],0.672
same,glycan array binding signal (z-score),[22],0.263
same,glycan array binding signal (z-score),[23],0.304
same,glycan array binding signal (z-score),Gal3S4S(b1-4)GlcNAc,0.065
same,glycan array binding signal (z-score),Gal3S6S(b1-4)GlcNAc,0.399
same,glycan array binding signal (z-score),Gal3S6S(b1-4)GlcNAc6S,0.189
same,glycan array binding signal (z-score),Gal4S(b1-4)GlcNAc,-0.198
same,glycan array binding signal (z-score),Gal4S6S(b1-4)GlcNAc,-0.23
same,glycan array binding signal (z-score),Gal6P(b1-4)GlcNAc,0.22
same,glycan array binding signal (z-score),Gal6S(b1-3)GlcNAc,-0.15
same,glycan array binding signal (z-score),Gal6S(b1-3)GlcNAc6S,-0.393
